Experimental data reported in patent US5616684A, “Cyclic peptides and use thereof” (priority 1991, dated 1997).
Part of at least one peptide drawing is inferred or uncertain, most often the ends. Starred links: 1 amine or outer side, 2 acyl side, 3 side chain; linkers in the order of their positions; H or OH if unused. Non-standard residues stand in square brackets, D forms with d. Residues, ends and D or L forms follow the SMILES beside them. *: point of attachment. dGly(2-thienyl) = N[C@@H](C(=O)O)c1cccs1; X1 = O=C([C@H](N[*:1])c1ccsc1)[*:2]; Hyp = O=C(O)[C@@H]1C[C@@H](O)CN1; dTle = CC(C)(C)[C@@H](N)C(=O)O; Bn = c1ccc(C*)cc1; For = O=C*

Columns and labels:
[1] = target: T1, endothelin receptor A (ETA) (Sus scrofa, UniProt Q29010); assay: Assay of Affinity for Receptor (1): Binding Activity on ETA Receptor; design: key: relative binding activity; reference cyclic pentapeptide = 1.0; details: specific activity, binding activity of cyclo[-D-Glu-Ala-D-aIle-Leu-D-Trp-] taken as 1.0; porcine heart membrane fraction, 125I-labeled endothelin-1, 25° C., 1 hour
T1 construct: A membrane fraction prepared from the porcine heart; from tissue; host or cells: porcine heart membrane fraction
T1 sequence (Q29010 21-427): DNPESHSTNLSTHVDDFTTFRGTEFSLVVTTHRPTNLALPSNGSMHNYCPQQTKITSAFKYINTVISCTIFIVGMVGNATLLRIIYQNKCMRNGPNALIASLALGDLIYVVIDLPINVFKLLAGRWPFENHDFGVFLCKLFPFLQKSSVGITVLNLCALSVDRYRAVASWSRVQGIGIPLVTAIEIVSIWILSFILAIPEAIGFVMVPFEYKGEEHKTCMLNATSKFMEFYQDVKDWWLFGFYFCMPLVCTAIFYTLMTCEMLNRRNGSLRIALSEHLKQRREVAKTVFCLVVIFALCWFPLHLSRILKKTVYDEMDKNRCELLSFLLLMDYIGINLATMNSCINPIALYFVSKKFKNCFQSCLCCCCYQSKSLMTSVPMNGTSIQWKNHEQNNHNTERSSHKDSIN
Procedure, shortened: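 Porcine heart membranes (0.15 mg/ml) incubated with 125I-endothelin-1 and test peptide for 1 h at 25 °C, then diluted with ice-cold buffer and pelleted at 12,000×g; bound radioactivity gamma-counted. Values expressed as specific activity relative to cyclo[-D-Glu-Ala-D-aIle-Leu-D-Trp-] set at 1.0.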

[2] = target: T2, endothelin receptor B (ETB) (Bos taurus, UniProt P28088); assay: Assay of Affinity for Receptor (2): Binding Activity on ETB Receptor *1; design: key: relative specific activity, Example 8 compound = 100; details: specific activity, binding activity of the compound of Example 8 taken as 100; bovine brain membrane fraction, 125I labeled endothelin-1, 25° C., 1 hour
T2 construct: A membrane fraction prepared from the bovine brain; from tissue; host or cells: bovine brain membrane fraction
T2 sequence (P28088 27-441): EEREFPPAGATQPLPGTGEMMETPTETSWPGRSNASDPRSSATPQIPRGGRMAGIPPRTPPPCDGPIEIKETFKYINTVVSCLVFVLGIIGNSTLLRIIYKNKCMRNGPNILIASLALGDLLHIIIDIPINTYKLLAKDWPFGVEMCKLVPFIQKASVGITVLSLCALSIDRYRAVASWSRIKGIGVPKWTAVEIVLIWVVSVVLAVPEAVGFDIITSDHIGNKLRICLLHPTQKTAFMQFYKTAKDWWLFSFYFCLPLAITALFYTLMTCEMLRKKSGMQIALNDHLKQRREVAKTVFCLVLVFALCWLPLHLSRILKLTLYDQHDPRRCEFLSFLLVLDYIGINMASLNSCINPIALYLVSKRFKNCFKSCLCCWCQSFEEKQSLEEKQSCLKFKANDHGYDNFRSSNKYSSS
Description: Assay of Affinity for Receptor (2) . . . Binding Activity on ETB Receptor *1
A membrane fraction prepared from the bovine brain was diluted to 0.15 mg/ml by using a buffer solution for assay, and 100 μl of the resulting suspension of the membrane fraction was poured into each assay tube to use for assay. To this suspension of the membrane fraction was added 2 μl of 5 nM ^125 I labeled endothelin-1 solution. Further, 3 μl of a test peptide solution was added thereto, followed by incubation at a temperature of 25° C. for 1 hour. Then, the resulting suspension was diluted with 900 μl of the buffer solution for assay cooled with ice, and thereafter separated into a supernatant and a precipitate by centrifugation at 12,000×g for 10 minutes. Cell membranes and an endothelin receptor B (ETB) embedded therein were contained in the precipitate, and radioactive iodine-labeled endothelin bound to the receptor was also recovered in the precipitate. Accordingly, the amount of radioactive iodine-labeled endothelin bound to the endothelin receptor B (ETB) was determined by measuring the amount of radioactive iodine contained in the precipitate with a gamma-ray counter. The numerical value of ETB shown in Table 1 is the value of specific activity, taking the binding activity of the compound of Example 8 on the receptor B as 100.

[3] = tested on: ETB receptor (guinea pig kidney crude receptor membrane fraction); assay: ETB Radio Receptor Assay *2; assay type: binding; details: relative activity (Example 8 given as 100), 125I-endothelin-1, 37° C., 90 minutes
Procedure, shortened: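 Crude membranes from guinea pig kidney (2.1 μg protein) incubated with 740 Bq ^125I-endothelin-1 and test sample, 90 min at 37 °C, in 50 mM Tris-HCl pH 7.4 with 0.1 mM PMSF, 1 mM EDTA, 0.2% BSA. Bound ligand separated by fast filtration and counted by gamma counter.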

Row | Structure (SMILES) | Binding Activity on ET Receptor (R. act.) ETA [1] | Binding Activity on ET Receptor (R. act.) ET8 *1 [2] | Binding Activity on ET Receptor (R. act.) ET8 *2 [3]
1 | CC(C)C[C@@H]1NC(=O)[C@@H](CC(C)C)NC(=O)[C@H](CC(=O)O)NC(=O)[C@@H]2C[C@@H](OCc3ccccc3)CN2C(=O)[C@@H](CC(=O)O)NC(=O)[C@@H](Cc2c[nH]c3ccccc23)NC1=O [Example 13, cyclo[-D-Asp-Hyp(Bzl)-Asp-D-Leu-Leu-D-Trp-]] (cyclo(D[dL]L[dW][dD][Hyp](Bn))) | 83 | 85 | 140
2 | CC(C)C[C@@H]1NC(=O)[C@@H](CC(C)C)NC(=O)[C@H](CC(=O)O)NC(=O)[C@H](Cc2cn(C=O)c3ccccc23)NC(=O)[C@@H](CC(=O)O)NC(=O)[C@@H](Cc2c[nH]c3ccccc23)NC1=O [Example 22, Cyclo[--D--Asp--Trp(For)--Asp--D--Leu--Leu--D--Trp--]] (cyclo(D[dL]L[dW][dD]W(For))) | 8.3 | 6.7 | 15
3 | CC(C)C[C@@H]1NC(=O)[C@@H](C(C)(C)C)NC(=O)[C@H](CC(=O)O)NC(=O)[C@H](C)NC(=O)[C@@H](CC(=O)O)NC(=O)[C@@H](Cc2c[nH]c3ccccc23)NC1=O [Example 39, Cyclo[--D--Asp--Ala--Asp--D--tLeu--Leu--D--Trp--]] (cyclo(AD[dTle]L[dW][dD])) | 6.8 | 59 | 53
4 | CC(C)C[C@@H]1NC(=O)[C@@H](CC(C)C)NC(=O)[C@H](CC(=O)O)NC(=O)[C@H](Cc2c[nH]c3ccccc23)NC(=O)[C@@H](CC(=O)O)NC(=O)[C@@H](Cc2cn(C=O)c3ccccc23)NC1=O [Example 42, Cyclo[--D--Asp--Trp--Asp--D--Leu--Leu--D--Trp(For)--]] (cyclo(D[dL]L[dW](For)[dD]W)) | 150 | 100 | 150
5 | CC(=O)n1cc(C[C@H]2NC(=O)[C@H](CC(C)C)NC(=O)[C@@H](CC(C)C)NC(=O)[C@H](CC(=O)O)NC(=O)[C@H](Cc3c[nH]c4ccccc34)NC(=O)[C@@H](CC(=O)O)NC2=O)c2ccccc21 [Example 43, Cyclo[--D--Asp--Trp--Asp--D--Leu--Leu--D--Trp(Ac)--]] (cyclo(D[dL]L[dW](Ac)[dD]W)) | 8.2 | 120 | 250
6 | CC(C)C[C@@H]1NC(=O)[C@@H](c2ccsc2)NC(=O)[C@H](CC(=O)O)NC(=O)[C@H](Cc2c[nH]c3ccccc23)NC(=O)[C@@H](CC(=O)O)NC(=O)[C@@H](Cc2c[nH]c3ccccc23)NC1=O [Example 49, Cyclo[--D--Asp--Trp--Asp--D--Thg(3)--Leu--D--Trp--]] (cyclo(D[X1]L[dW][dD]W)) | 270 | 74 | 75
7 | CC(C)C[C@@H]1NC(=O)[C@@H](c2cccs2)NC(=O)[C@H](CC(=O)O)NC(=O)[C@@H]2C[C@@H](OCc3ccccc3)CN2C(=O)[C@@H](CC(=O)O)NC(=O)[C@@H](Cc2c[nH]c3ccccc23)NC1=O [Example 88, cyclo[-D-Asp-Hyp(Bzl)-Asp-D-Thg(2)-Leu-D-Trp-]] (cyclo(D[dGly(2-thienyl)]L[dW][dD][Hyp](Bn))) | 650 | 200 | 210
